Results from the supplement of paper PMC4967469.
Lines with a small IC50 respond at low doses; a fit beyond the top or the lowest dose is shown as a bound at that dose. The AUC spans the tested range (256-fold, ending at the top dose) of the same fit; values near 1 show little effect. For some assays here: Where the top dose is marked as inferred, it was derived from the fitted curves, not read from the paper.

How the values were obtained:
Assay in all cases: Viability of human cancer cell lines after 72 h of drug (GDSC screen)
UNC1215 = compound: O=C(c1ccc(C(=O)N2CCC(N3CCCC3)CC2)c(Nc2ccccc2)c1)N1CCC(N2CCCC2)CC1 [UNC1215]; conditions: top dose 1 µM; top dose inferred
Method: (§1)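 Human cancer cell lines in 384-well plates, medium with 10% serum, drug for 72 h over a 256-fold dose range (nine 2-fold or five 4-fold steps up to the top dose). Adherent lines were fixed and stained with the nucleic acid dye Syto60, suspension lines read with resazurin; signal relative to control wells, capped at 0 and 100%. One two-parameter sigmoid per drug and line, fitted in a mixed model over all curves with the slope shared within a line.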

17-AAG = compound: C=CCNC1=C2C[C@@H](C)C[C@H](OC)[C@H](O)[C@@H](C)/C=C(\C)[C@H](OC(N)=O)[C@@H](OC)/C=C\C=C(/C)C(=O)NC(=CC1=O)C2=O [17-AAG]; conditions: top dose 1 µM
Method: as §1

Doxorubicin = compound: COc1cccc2c1C(=O)c1c(O)c3c(c(O)c1C2=O)C[C@@](O)(C(=O)CO)C[C@@H]3O[C@H]1C[C@H](N)[C@H](O)[C@H](C)O1 [Doxorubicin]; conditions: top dose 1.024 µM
Method: as §1

BIX02189 = compound: CN(C)Cc1cccc(N=C(c2ccccc2)c2c(O)[nH]c3cc(C(=O)N(C)C)ccc23)c1 [BIX02189]; conditions: top dose 20 µM; top dose inferred
Method: as §1

CCT018159 = compound: CCc1cc(-c2n[nH]c(C)c2-c2ccc3c(c2)OCCO3)c(O)cc1O [CCT018159]; conditions: top dose 10 µM; top dose inferred
Method: as §1

OSI-027 = compound: COc1cccc2cc(-c3nc([C@H]4CC[C@H](C(=O)O)CC4)n4ncnc(N)c34)[nH]c12 [OSI-027]; conditions: top dose 20 µM
Method: as §1

TG101348 = compound: Cc1cnc(Nc2ccc(OCCN3CCCC3)cc2)nc1Nc1cccc(S(=O)(=O)NC(C)(C)C)c1 [TG101348]; conditions: top dose 10.24 µM
Method: as §1

VX-11e = compound: Cc1cnc(Nc2ccc(F)cc2Cl)nc1-c1c[nH]c(C(=O)N[C@H](CO)c2cccc(Cl)c2)c1 [VX-11e]; conditions: top dose 5.12 µM; top dose inferred
Method: as §1

Vismodegib = compound: CS(=O)(=O)c1ccc(C(=O)Nc2ccc(Cl)c(-c3ccccn3)c2)c(Cl)c1 [Vismodegib]; conditions: top dose 10 µM; top dose inferred
Method: as §1

Dimethyloxalylglycine = compound: COC(=O)CNC(=O)C(=O)OC [Dimethyloxalylglycine]; conditions: top dose 4000 µM; top dose inferred
Method: as §1

PE/CA-PJ15 (head and neck, adherent)
AUC (UNC1215): 0.984 | IC50 (UNC1215): > 1 µM | AUC (17-AAG): 0.5 | IC50 (17-AAG): 0.0626 µM | AUC (Doxorubicin): 0.685 | IC50 (Doxorubicin): 0.222 µM | AUC (BIX02189): 0.972 | IC50 (BIX02189): > 20 µM | AUC (CCT018159): 0.821 | IC50 (CCT018159): 6.44 µM | AUC (OSI-027): 0.894 | IC50 (OSI-027): > 20 µM | AUC (TG101348): 0.965 | IC50 (TG101348): > 10.2 µM | AUC (VX-11e): 0.957 | IC50 (VX-11e): > 5.12 µM | AUC (Vismodegib): 0.981 | IC50 (Vismodegib): > 10 µM | AUC (Dimethyloxalylglycine): 0.454 | IC50 (Dimethyloxalylglycine): 185 µM

OE33 (oesophagus, adherent)
AUC (UNC1215): 0.982 | IC50 (UNC1215): > 1 µM | AUC (17-AAG): 0.799 | IC50 (17-AAG): 0.589 µM | AUC (Doxorubicin): 0.757 | IC50 (Doxorubicin): 0.415 µM | AUC (BIX02189): 0.97 | IC50 (BIX02189): > 20 µM | AUC (CCT018159): 0.902 | IC50 (CCT018159): > 10 µM | AUC (OSI-027): 0.821 | IC50 (OSI-027): 14.6 µM | AUC (TG101348): 0.945 | IC50 (TG101348): > 10.2 µM | AUC (VX-11e): 0.902 | IC50 (VX-11e): > 5.12 µM | AUC (Vismodegib): 0.973 | IC50 (Vismodegib): > 10 µM | AUC (Dimethyloxalylglycine): 0.546 | IC50 (Dimethyloxalylglycine): 341 µM

NCI-H510A (small cell lung carcinoma, semi-adherent)
AUC (17-AAG): 0.854 | IC50 (17-AAG): 0.692 µM | AUC (Doxorubicin): 0.721 | IC50 (Doxorubicin): 0.254 µM | AUC (BIX02189): 0.949 | IC50 (BIX02189): > 20 µM | AUC (CCT018159): 0.936 | IC50 (CCT018159): > 10 µM | AUC (OSI-027): 0.624 | IC50 (OSI-027): 2.65 µM | AUC (TG101348): 0.876 | IC50 (TG101348): 8.69 µM | AUC (VX-11e): 0.96 | IC50 (VX-11e): > 5.12 µM | AUC (Vismodegib): 0.958 | IC50 (Vismodegib): > 10 µM | AUC (Dimethyloxalylglycine): 0.495 | IC50 (Dimethyloxalylglycine): 242 µM

RPMI-7951 (melanoma, adherent)
AUC (17-AAG): 0.223 | IC50 (17-AAG): 0.01 µM | AUC (Doxorubicin): 0.617 | IC50 (Doxorubicin): 0.133 µM | AUC (BIX02189): 0.966 | IC50 (BIX02189): > 20 µM | AUC (CCT018159): 0.858 | IC50 (CCT018159): 7.8 µM | AUC (OSI-027): 0.372 | IC50 (OSI-027): 0.561 µM | AUC (TG101348): 0.889 | IC50 (TG101348): > 10.2 µM | AUC (VX-11e): 0.877 | IC50 (VX-11e): 4.88 µM | AUC (Vismodegib): 0.964 | IC50 (Vismodegib): > 10 µM | AUC (Dimethyloxalylglycine): 0.541

KP-1N (pancreas, adherent)
AUC (UNC1215): 0.979 | IC50 (UNC1215): > 1 µM | AUC (17-AAG): 0.943 | IC50 (17-AAG): > 1 µM | AUC (Doxorubicin): 0.561 | IC50 (Doxorubicin): 0.0946 µM | AUC (CCT018159): 0.907 | IC50 (CCT018159): > 10 µM | AUC (Vismodegib): 0.984 | IC50 (Vismodegib): > 10 µM | AUC (Dimethyloxalylglycine): 0.636 | IC50 (Dimethyloxalylglycine): 604 µM

GMS-10 (glioma, adherent)
AUC (17-AAG): 0.537 | IC50 (17-AAG): 0.0789 µM | AUC (Doxorubicin): 0.817 | IC50 (Doxorubicin): 0.569 µM | AUC (BIX02189): 0.985 | IC50 (BIX02189): > 20 µM | AUC (CCT018159): 0.835 | IC50 (CCT018159): 6.53 µM | AUC (OSI-027): 0.96 | IC50 (OSI-027): > 20 µM | AUC (TG101348): 0.913 | IC50 (TG101348): > 10.2 µM | AUC (VX-11e): 0.987 | IC50 (VX-11e): > 5.12 µM | AUC (Vismodegib): 0.988 | IC50 (Vismodegib): > 10 µM | AUC (Dimethyloxalylglycine): 0.641 | IC50 (Dimethyloxalylglycine): 611 µM

IM-9 (myeloma, suspension)
AUC (UNC1215): 0.982 | IC50 (UNC1215): > 1 µM | AUC (17-AAG): 0.976 | IC50 (17-AAG): > 1 µM | AUC (Doxorubicin): 0.48 | IC50 (Doxorubicin): 0.057 µM | AUC (CCT018159): 0.986 | IC50 (CCT018159): > 10 µM | AUC (Vismodegib): 0.97 | IC50 (Vismodegib): > 10 µM | AUC (Dimethyloxalylglycine): 0.875 | IC50 (Dimethyloxalylglycine): 3010 µM

NCI-H64 (small cell lung carcinoma, suspension)
AUC (17-AAG): 0.996 | IC50 (17-AAG): > 1 µM | AUC (Doxorubicin): 0.629 | AUC (BIX02189): 0.984 | IC50 (BIX02189): > 20 µM | AUC (CCT018159): 0.992 | IC50 (CCT018159): > 10 µM | AUC (OSI-027): 0.122 | IC50 (OSI-027): 0.134 µM | AUC (TG101348): 0.843 | IC50 (TG101348): 4.67 µM | AUC (VX-11e): 0.994 | IC50 (VX-11e): > 5.12 µM | AUC (Vismodegib): 0.996 | IC50 (Vismodegib): > 10 µM | AUC (Dimethyloxalylglycine): 0.499 | IC50 (Dimethyloxalylglycine): 249 µM
